From PubChem BioAssay AID488969 (Vanderbilt High Throughput Screening Facility, 2010)
In all, about 110,000 compounds were measured (“z-score”: median about -0.1, highest 2% from about 2 on). The list shows a part of the results. Calls of active or inactive are those of the source.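 The calls were made as follows: active = z-score in the third read window above 3 or below -3; inactive = the rest.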

Target: Metabotropic glutamate receptor 8 (Rattus norvegicus) (UniProt P70579)
Experiment: mGluR8 Gi/Go-coupled signaling modulation – cell-based, rat, thallium flux, HTS, primary screen (AID 488969)
Conditions: HEK293 rat mGluR8, GIRK (G protein-gated inwardly rectifying potassium channel) thallium flux, FluoZin2; at 10 µM; stronger effect = higher value; submaximal glutamate (EC20) added with thallium

Chain of UniProt P70579 (P70579 whole entry, looked up): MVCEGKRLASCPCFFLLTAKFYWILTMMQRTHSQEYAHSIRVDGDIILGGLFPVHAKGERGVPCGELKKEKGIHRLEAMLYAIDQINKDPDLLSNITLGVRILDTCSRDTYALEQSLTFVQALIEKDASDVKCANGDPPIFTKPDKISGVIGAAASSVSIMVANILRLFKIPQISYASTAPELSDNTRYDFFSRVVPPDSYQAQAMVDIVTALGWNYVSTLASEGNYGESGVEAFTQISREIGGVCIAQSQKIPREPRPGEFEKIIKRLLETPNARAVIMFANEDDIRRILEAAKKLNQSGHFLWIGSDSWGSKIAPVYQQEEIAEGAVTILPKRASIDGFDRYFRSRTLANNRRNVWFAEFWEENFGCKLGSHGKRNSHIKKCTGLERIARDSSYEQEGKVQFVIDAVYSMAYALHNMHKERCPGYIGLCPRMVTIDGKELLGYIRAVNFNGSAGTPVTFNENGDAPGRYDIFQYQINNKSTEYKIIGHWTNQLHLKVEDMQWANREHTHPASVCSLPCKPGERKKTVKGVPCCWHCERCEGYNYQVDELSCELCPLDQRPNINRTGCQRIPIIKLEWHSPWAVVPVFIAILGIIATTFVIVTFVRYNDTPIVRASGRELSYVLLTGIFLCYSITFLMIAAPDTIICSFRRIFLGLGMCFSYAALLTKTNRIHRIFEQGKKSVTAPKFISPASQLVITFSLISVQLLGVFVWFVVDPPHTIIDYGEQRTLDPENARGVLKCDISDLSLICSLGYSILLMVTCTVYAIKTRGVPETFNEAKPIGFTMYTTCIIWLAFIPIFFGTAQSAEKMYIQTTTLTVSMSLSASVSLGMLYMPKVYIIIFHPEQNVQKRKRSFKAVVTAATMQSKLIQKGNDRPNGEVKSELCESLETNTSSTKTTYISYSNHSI

Point of comparison: CCOc1cc(/C=C/c2ccc3cccc([N+](=O)[O-])c3n2)cc(Cl)c1O, z-score 0.601. Against it:
- COc1ccc(C(=O)CSc2nnc(-c3ccco3)n2CC2CCCO2)cc1 (stereo unspecified) — lower, -0.159
- Cn1ncc2c(=O)n(/N=C/c3ccccc3)cnc21 — lower, -0.0987
- O=C(O)CCN1C(=O)CC2(CCCCC2)C1=O — lower, 0.371
- O=C(O)C(NC(=O)c1ccccc1)=C(Cl)Cl — lower, 0.118
- CCOc1ccc2c(c1)C(C)=CC(C)(C)N2C(=O)Nc1ccccc1 — lower, -0.23
- Cn1c(SCc2c(Cl)cccc2Cl)nc(C(F)(F)F)cc1=O — lower, 0.025
- COc1ccc(NC(=O)COC(=O)CNC(=O)c2cc(OC)c(OC)c(OC)c2)cc1 — lower, -0.308
- CC(=O)c1cccc(NC(=O)C(OC(=O)/C=C/c2ccc3c(c2)OCO3)c2ccccc2)c1 (stereo unspecified) — lower, -0.164
- O=C(Nc1ccccc1C(=O)OCc1nnc(-c2ccccc2)o1)c1ccco1 — lower, -0.0394
- CCC(C)[C@H](NC(=O)NCc1ccccn1)C(=O)OC (stereo partly specified) — lower, 0.224
- COc1ccc(CNC(=O)CSc2ncn[nH]2)cc1 — lower, -0.172
- Cc1nc2ccccc2c(=O)n1/N=C/c1ccccc1 — lower, -0.0985
- CC1CCN(C(=O)COC(=O)c2cc3ccccc3cc2O)CC1 — lower, -0.0905
- CCC(=O)Nc1cc(=O)[nH]c2ncnn12 — lower, 0.0854
- Cc1cc(C)c2nc(-c3ccccn3)cc(C(=O)Nc3cc(C)on3)c2c1 — lower, 0.126
- Cc1ccc2nc(C(=O)O)c(C(=O)O)nc2c1 — lower, -0.0144
- CCOC(=O)C(Cc1ccc(NC(=O)/C(=C\c2ccccc2)NC(=O)c2ccccc2)cc1)N1C(=O)c2ccccc2C1=O (stereo unspecified) — lower, -0.246
- COc1ccc(S(=O)(=O)N(CC(=O)NCc2ccco2)c2ccccc2)cc1OC — lower, 0.527
- Cc1cccc(C)c1NC(=O)CN1C(=O)S/C(=C\c2cccn2C)C1=O — lower, -0.0785
- CCCNC(=O)CSc1nnc(-c2ccco2)n1C — lower, -0.316
- O=C(N/N=C/c1cc([N+](=O)[O-])ccc1Cl)c1ccc2nc[nH]c2c1 — lower, -0.208
- CC(=O)c1cccc(N(CC(=O)N2CCCCC2)S(C)(=O)=O)c1 — lower, 0.014
- Cc1cccc2cc(C(c3nnnn3Cc3ccccc3)N3CCN(c4ccccc4)CC3)c(=O)[nH]c12 (stereo unspecified) — lower, -0.277
- COCCCNC(=O)CC(NS(=O)(=O)c1ccc(Cl)cc1)c1ccc(OC)cc1 (stereo unspecified) — lower, -0.0343
- CCCCCCC(=O)NC(Nc1ccc(S(N)(=O)=O)cc1)C(Cl)(Cl)Cl (stereo unspecified) — lower, -0.259
- COCCNC(=O)C(C)OC(=O)c1nsc(Cl)c1Cl (stereo unspecified) — lower, -0.143
- COC(=O)C1CCN(CC(=O)Nc2sc3c(c2C#N)CCC3)CC1 — lower, -0.0794
- CC(=O)N1CCN(C(=S)c2cccc([N+](=O)[O-])c2)CC1 — lower, -0.106
- CC1(C)C(=O)Nc2ccccc2N1C(=O)COC(=O)CCSc1ccccc1 — lower, 0.0918
- CCOc1ccc(/C=N/NC(=O)Cc2csc(Nc3cccc(C(F)(F)F)c3)n2)c(OCC)c1 — lower, -0.169
- COc1ccc(OC)c(-c2cc(C(=O)Nc3cc(C)n(Cc4ccc(Cl)cc4)n3)no2)c1 — lower, -0.962
- CC(Oc1ccc(F)cc1F)C(=O)/C=C/N(C)C (stereo unspecified) — lower, -0.349
- Cc1cc(C)n(-c2nnc3n2N=C(c2c[nH]c4ccccc24)CS3)n1 — lower, -2.14
- Cc1cccc(C)c1-n1c(C)cc(/C=N/NC(=O)CSc2ncccn2)c1C — lower, -0.547
- CC(C)COc1cccc(C(=O)NC(=S)NCc2cccnc2)c1 — lower, 0.559
- CCCOC(=O)C1[C@H]2C(=O)N(Cc3ccco3)C[C@]23C=C[C@H]1O3 (stereo partly specified) — lower, 0.0986
- CC(C(=O)Nc1ccc2nccnc2c1)N1C(=O)C2C3C=CC(C3)C2C1=O (stereo unspecified) — lower, -0.162
- COc1cccc(C(=O)COC(=O)C(C)N2C(=O)C3C4C=CC(C4)C3C2=O)c1 (stereo unspecified) — lower, -0.0918
- COc1ccc(S(=O)(=O)N2CCC(C(=O)NCCC3=CCCCC3)CC2)cc1C — lower, 0.18
- O=C(CSc1nc2ccc([N+](=O)[O-])cc2[nH]1)NC1CCCC1 — lower, -0.462
- CN(C)Cc1c(O)ccc2occ(C(O)c3ccccc3)c12 (stereo unspecified) — higher, 1.31
- C=CCN1C(=O)CN=C1Nc1cc(C)ccc1C — lower, 0.367
- O=[N+]([O-])c1ccccc1OCCOCCOc1cccc2cccnc12 — lower, 0.0205
- CCOc1ccc(Nc2nc3ccccc3n3nnnc23)cc1 — lower, -0.183
- CC1CC(C(F)F)n2nc(C(=O)O)cc2N1 (stereo unspecified) — lower, -0.126
- O=C(CCCOc1ccc(Cl)cc1)N1CCCCCC1 — lower, -0.152
- CCCCNC(=O)Oc1cccc(N2CCCC2=O)c1 — lower, -0.317
- CSc1nccc(-c2nn(-c3ccc(C)cc3)ccc2=O)n1 — lower, -0.18
- COc1ccc(-c2csc(N3C(=O)CNC3=S)n2)cc1 — lower, 0.492
- Cc1noc(C)c1C(=O)Nc1cccnc1 — lower, -0.49
- Nc1cc(N)nc(SCc2cccnc2)n1 — lower, -0.0787
- CCOC(=O)C1=C(Cn2ccc(C(F)(F)F)n2)NC(=O)NC1c1ccc2c(c1)OCO2 (stereo unspecified) — lower, -1.04
- CC(C)CCNC(=S)Nc1ccccn1 — lower, -0.14
- CC(=O)NCCOc1ccc2oc3ccccc3c2c1 — lower, -0.506
- CCOC(=O)c1c(NC(=O)COC(=O)CNC(=O)c2ccco2)sc(C(C)=O)c1C — higher, 1.56
- O=C(CNC(=S)N(CCCN1CCOCC1)Cc1cccs1)NC1CCCCCCC1 — lower, -0.687
- CCC(=O)OCc1cc2cccc(C)c2[nH]c1=O — higher, 1.17
- CCOc1ccc(/C=N/O)cc1 — lower, -0.0589
- CC1(C)CC(=O)c2sc(NS(C)(=O)=O)nc2C1 — lower, 0.105
- Cc1cccc(-c2nc3ccccc3c(=O)n2NC(=S)N(C)C)c1 — lower, -0.0514
- O=C(OCC(=O)N1CCc2ccccc21)c1ccc(Cl)nc1 — lower, -0.126
- COc1ccc(N2CCN(C(CNS(=O)(=O)c3ccc4c(c3)OCCO4)c3ccco3)CC2)cc1 (stereo unspecified) — lower, -0.267
- CN(C)C(=O)CSc1nnc(CCN)o1 — higher, 0.699
- CCCCOc1ccc(C)cc1CN(CCO)CCO — higher, 0.648
- COc1ccc(Nc2nc(N)nc(CN3CCN(c4ccccn4)CC3)n2)cc1 — lower, 0.264
- Cc1cc(C)n2nc(SCc3nnc(SCc4ccccc4Cl)s3)nc2n1 — lower, 0.0432
- O=c1c(-c2ccco2)[n+]([O-])c2ccccc2n1OCc1ccccc1 — lower, -1.43
- COc1ccc(-c2nnc(NC(=O)CSc3ccc(C)cc3)s2)cc1OC — lower, -0.22
- O=[N+]([O-])c1cc(Cl)ccc1NCCNS(=O)(=O)c1ccccc1 — lower, -0.267
- O=CN(/C=C1\Sc2ccccc2C1=O)Cc1ccccc1 — lower, -0.358
- Cn1c2c(c(=O)n(C)c1=O)CN(CCCN1CCOCC1)CN2 — lower, 0.177
- NC(=O)c1nc(N2CCOCC2)nc(N2CCOCC2)n1 — lower, 0.152
- O=C(NCC1CCCO1)C(c1cccs1)N(Cc1ccccc1Cl)C(=O)c1ccc(-c2ccccc2)[nH]1 (stereo unspecified) — higher, 2.14
- Cc1cc(C(F)(F)F)n(-c2nc(C(=O)N/N=C/c3ccc(F)cc3)cs2)n1 — lower, -0.0708
- COc1ccc(C2C(C(=O)NCc3ccccn3)c3ccccc3C(=O)N2C)cc1OC (stereo unspecified) — higher, 0.753
- CC1=C(C(=O)N2CCCCC2)C2(CCC(C)CC2)OC1=O (stereo unspecified) — lower, 0.0979
- CCc1nc(C)cn1S(=O)(=O)c1cc(Cl)c(OC)cc1Cl — higher, 2.99
- CCCn1c(NCc2ccccc2NS(=O)(=O)c2ccc(C)cc2)nc2ccccc21 — lower, -0.784
- O=S(=O)(N1CCOCC1)N1CCN(c2ccc(F)cc2)CC1 — lower, 0.324
- COc1ccc(/C=N/NC(=O)c2ccc(Br)cc2)cc1Cn1cc(Cl)cn1 — lower, -0.434
- CC(C)CCN(C)C1CCN(C(=O)Nc2c(F)cccc2F)CC1 — lower, -0.117
- CC1CC(C)CN(CCCNC(=O)COc2cc(=O)n(C)c3ccccc23)C1 (stereo unspecified) — lower, -0.093
- COc1cc(OC)c(OC)cc1CN1CCN(c2ccccc2OC)CC1 — lower, 0.548
- COc1ccc2nc(N3CCCC(O)C3)c(C#N)cc2c1 (stereo unspecified) — lower, -0.141
- CC(C)c1ccc(NC(=O)COc2ccc(S(=O)(=O)N3CCOCC3)cc2)cc1 — lower, 0.231
- C/C(=N\NC(=O)CNC(=O)C(c1ccccc1)c1ccccc1)c1ccccc1 — lower, -0.212
- O=C(NC1CCCc2ccccc21)C1CCN(S(=O)(=O)c2ccccc2F)CC1 (stereo unspecified) — lower, -0.424
- CN(C)S(=O)(=O)Oc1ccsc1C(=O)Nc1ccccc1Cl — lower, 0.0382
- O=C(CCN1C(=O)c2ccccc2C1=O)Nc1ccc(-c2cn3ccsc3n2)cc1 — lower, -0.468
- COc1ccccc1/C=N/NC(=O)C(=O)Nc1ccccc1OC(F)(F)C(F)F — lower, -0.165
- CC(C)CNC(=O)c1ccc(Cl)c(N)c1 — lower, -0.294
- COc1ccc(N=C2C(=Nc3ccc(OC)cc3)N(c3ccc(OC)cc3)C(=S)N2C)cc1 — lower, -0.0804
- CCOC(=O)NC(CC(=O)O)c1ccc(OC)c(OC)c1 (stereo unspecified) — lower, -0.173
- COc1ccccc1N1CCN(S(=O)(=O)c2cn(C)c(=O)n(C)c2=O)CC1 — lower, -0.107
- CCOc1ccccc1C1C(C(=O)Nc2ccccc2OC)=C(C)Nc2nc(CCCO)nn21 (stereo unspecified) — lower, -0.324
- COc1ccc(CNC(=O)c2c(F)c(F)c(F)c(F)c2F)cc1 — higher, 0.709
- O=C(O)CCc1nc2ccccc2n(CCc2ccccc2)c1=O — lower, 0.396
- CC(=O)NC(Cc1c[nH]c2ccccc12)C(=O)OCC(=O)Nc1ccc2c(c1)OCO2 (stereo unspecified) — lower, -0.124
- COc1ccccc1C(c1nnnn1CCc1ccccc1)N1CCN(c2ccccc2)CC1 (stereo unspecified) — lower, -0.00308
- C=CCOC(=O)CC(NC(=O)c1ccccc1)c1ccccc1 (stereo unspecified) — lower, 0.0338
- Cn1c(SCC(=O)N2CCOCC2)nnc1-c1cnccn1 — lower, -0.285
- Cc1cc(C)nc(N2CCCC(C(=O)NCCc3ccccc3F)C2)n1 (stereo unspecified) — lower, -0.306
- CCCCOc1ccc(NC(=O)C2CC=CCC2C(=O)O)cc1 (stereo unspecified) — lower, -0.0643
- Cc1ccc2cc(C)c(NCCO)nc2c1 — lower, -0.569
- COc1ccc(-c2cc(-c3ccc(Br)cc3)nc3ncnn23)cc1OC — lower, 0.366
- CCC(C)NC(=O)C1(C)CCC(=O)N1CCc1ccc(OC)c(OC)c1 (stereo unspecified) — lower, 0.237
- COc1ccccc1NC(=O)C1=C(C)Nc2ncnn2C1c1ccc(C)o1 (stereo unspecified) — lower, 0.084

For CCOc1cc(/C=N/NC(=O)CNc2cccc(C)c2)ccc1OC(=O)c1ccccc1, the z-score was active: 5.52.
In the case of CCCN1C(=O)/C(=C/c2ccc(N3CCCC3)c(C)c2)NC1=S, the z-score is reported as active: 11.
With CCCn1c(O)c(N=NC(=O)c2ccco2)c2ccccc21 the z-score was active: 3.17.
